Results reported in EP0552417B1, “Cyclic peptides and use thereof” (priority 1991, dated 1993).
Part of at least one peptide drawing is inferred or uncertain, most often the ends. Non-standard residues stand in square brackets, D forms with d. Residues, ends and D or L forms follow the SMILES beside them. Groups on a side chain read outwards from the residue. ξ: configuration not given here. *: point of attachment. His(τ-Bzl) = N[C@@H](Cc1cn(Cc2ccccc2)cn1)C(=O)O; dGly(2-thienyl) = N[C@@H](C(=O)O)c1cccs1; NH(Tetralin-1-yl) = c1ccc2c(c1)CCCC2N*; Mtr = COc1cc(C)c(S(=O)(=O)*)c(C)c1C; Hydrocinnamoyl = O=C(CCc1ccccc1)*; dTle = CC(C)(C)[C@@H](N)C(=O)O; NHPhenethyl = c1ccc(CCN*)cc1; ξTic = O=C(O)C1Cc2ccccc2CN1; Ac6c = NC1(C(=O)O)CCCCC1; Orn = NCCC[C@H](N)C(=O)O; Thz = O=C(O)[C@@H]1CSCN1; Ac4c = NC1(C(=O)O)CCC1; X4 = c1ccc2c(c1)CCC2N*; X6 = CC(=O)N1CCN(*)CC1; Bn = c1ccc(C*)cc1

Key:
[1] = molecular target: T1, endothelin receptor A (ETA) (Sus scrofa, UniProt Q29010); test: Assay of affinity for receptor (1): binding activity on ETA receptor, 125I-labeled endothelin-1, porcine heart membrane fraction; design: key: relative specific activity; reference cyclic pentapeptide ETA binding = 1.0; settings: specific activity, taking the binding activity of control cyclo[-D-Glu-Ala-D-aIle-Leu-D-Trp-] on receptor A as 1.0, 25°C, 1 hour
T1 construct: A membrane fraction prepared from the porcine heart; from tissue; host or cells: porcine heart membrane fraction
T1 sequence (Q29010 21-427): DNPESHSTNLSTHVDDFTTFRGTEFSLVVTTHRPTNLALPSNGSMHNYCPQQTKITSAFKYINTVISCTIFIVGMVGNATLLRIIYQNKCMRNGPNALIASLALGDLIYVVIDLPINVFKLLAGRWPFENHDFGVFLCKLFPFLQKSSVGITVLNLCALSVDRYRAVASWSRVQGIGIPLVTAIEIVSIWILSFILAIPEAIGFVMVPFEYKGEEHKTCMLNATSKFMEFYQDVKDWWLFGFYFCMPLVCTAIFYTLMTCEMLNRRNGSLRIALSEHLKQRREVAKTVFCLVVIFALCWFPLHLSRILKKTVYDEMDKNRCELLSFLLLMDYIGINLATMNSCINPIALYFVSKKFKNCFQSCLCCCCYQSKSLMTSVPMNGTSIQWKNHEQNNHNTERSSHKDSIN
Experimental: Assay of Affinity for Receptor (1) ... Binding Activity on ETA Receptor
A membrane fraction prepared from the porcine heart was diluted to 0.15 mg/ml by using a buffer solution for assay, and 100 µl of the resulting suspension of the membrane fraction was poured into each assay tube to use for assay. To this suspension of the membrane fraction was added 2 µl of 5 nM ^125I-labeled endothelin-1 solution. Further, 3 µl of a test peptide solution was added thereto, followed by incubation at a temperature of 25°C for 1 hour. Then, the resulting suspension was diluted with 900 µl of the buffer solution for assay cooled with ice, and thereafter separated into a supernatant and a precipitate by centrifugation at 12,000 X g for 10 minutes. Cell membranes and an endothelin receptor A (ETA) embedded therein were contained in the precipitate, and radioactive iodine-labeled endothelin combined with the receptor was also recovered in the precipitate. Accordingly, the amount of radioactive iodine-labeled endothelin combined with the endothelin receptor A (ETA) was determined by measuring the amount of radioactive iodine contained in the precipitate with a gamma-ray counter. The cyclic pentapeptide described in Japanese Patent Application No. 2-413328/1990, cyclo[-D-Glu-Ala-D-aIle-Leu-D-Trp-], was used as a control compound. The numerical value of ETA shown in Table 1 is the value of specific activity, taking the binding activity of this cyclic pentapeptide on the receptor A as 1.0. The binding activity (IC50) of this cyclic pentapeptide on the ETA receptor is 2x10^-6 M.

[2] = test system: ETB; test: ETB radio receptor assay *2, 125I-endothelin-1, guinea pig kidney crude membrane fraction; format: binding, Guinea pigs; settings: relative activity, 37 °C, 90 minutes
Experimental: ETB Radio Receptor Assay *2
In the endothelin radio receptor assay, guinea pigs' kidneys were used. Guinea pigs (Std Hartrey, male 250 g, Japan SLC Ltd.) were made to have a cerebral concussion and sacrificed by bleeding from carotid arteries to pick up the kidneys and removed fat therefrom to prepare the kidneys. The obtained kidneys were sliced and homogenized by politron homogenizer in 20 ml of 50 mM Tris-HCl buffer [pH 7.4; 20 mM NaHCO3, 0.1 mM PMSF (Phenylmethylsulfonyl Fluoride), 1 mM EDTA (Ethylenediaminetetraacetic acid)] per one kidney. The homogenized kidney was applied to a centrifugation at 1,000 x g for 15 minutes and the supernatant was further applied to a centrifugation for 20 minutes at 30,000 x g. The resulting precipitate was twice washed with 50 mM Tris-HCl buffer (pH 7.4) containing 0.1 mM PMSF, 1 mM EDTA. The resultant was stored at -80 °C as a crude receptor membrane fraction and was used as the suspension in the following buffer when necessary.
740 Bq of ^125I-endothelin-1 (81.4 TBq/mmol, Du Pont, USA) as a radio ligand, the crude membrane fraction (2.1 µg protein) and samples were added to the following buffer. The reaction was performed at 37 °C, for 90 minutes in 0.2 ml of the buffer [50 mM Tris-HCl buffer (pH 7.4) containing 0.1 mM PMSF, 1 mM EDTA, 0.2% bovine serum albumin].
The reaction was stopped by fast filtration on a glass filter (GF/B, Wattman, USA) by Cell Harvestor (290 PHD, Cambridge-Technology, Great Britain), and the filter was three times washed with 50 mM Tris-HCl buffer (pH 7.4). Radio activity remained on the filter was assayed by a gamma counter.

CC(C)C[C@@H]1NC(=O)[C@@H](c2cccs2)NC(=O)[C@H](CC(=O)O)NC(=O)[C@H](Cc2c[nH]c3ccccc23)NC(=O)[C@@H](CC(=O)O)NC(=O)[C@@H](Cc2c[nH]c3ccccc23)NC1=O [Example 55, cyclo[-D-Asp-Trp-Asp-D-Thg(2)-Leu-D-Trp-]] (cyclo(D[dGly(2-thienyl)]L[dW][dD]W))
Binding Activity on ET Receptor (R. act.) ETA [1]: 340
Binding Activity on ET Receptor (R. act.) ETB*2 [2]: 120

CC(C)C[C@@H]1NC(=O)[C@@H](CC(C)C)NC(=O)[C@H](CC(=O)O)NC(=O)[C@H](Cc2cn(Cc3ccccc3)cn2)NC(=O)[C@@H](CC(=O)O)NC(=O)[C@@H](Cc2c[nH]c3ccccc23)NC1=O [Example 85, Cyclo[-D-Asp-His(Bzl)-Asp-D-Leu-Leu-D-Trp-]] (cyclo(D[dL]L[dW][dD][His(τ-Bzl)]))
Binding Activity on ET Receptor (R. act.) ETA [1]: 19
Binding Activity on ET Receptor (R. act.) ETB*2 [2]: 43

CC(C)C[C@@H]1NC(=O)C2(CCCCC2)NC(=O)[C@H](CC(=O)O)NC(=O)[C@H](Cc2c[nH]c3ccccc23)NC(=O)[C@@H](CC(=O)O)NC(=O)[C@@H](Cc2c[nH]c3ccccc23)NC1=O [Example 61, Cyclo[-D-Asp-Trp-Asp-Achx-Leu-D-Trp-]] (cyclo([Ac6c]L[dW][dD]WD))
Binding Activity on ET Receptor (R. act.) ETA [1]: 39
Binding Activity on ET Receptor (R. act.) ETB*2 [2]: 52

CC(C)C[C@@H]1NC(=O)[C@@H](CC(C)C)NC(=O)[C@H](CC(=O)O)NC(=O)[C@H](CC(=O)NC2CCc3ccccc32)NC(=O)[C@@H](CC(=O)O)NC(=O)[C@@H](Cc2c[nH]c3ccccc23)NC1=O (stereo partly drawn) [Example 73, Cyclo[-D-Asp-Asp(R4)-Asp-D-Leu-Leu-D-Trp-]] (cyclo(D(X4)D[dL]L[dW][dD]))
Binding Activity on ET Receptor (R. act.) ETA [1]: 80
Binding Activity on ET Receptor (R. act.) ETB*2 [2]: 40

CC(C)C[C@@H]1NC(=O)[C@@H](CC(C)C)NC(=O)[C@H](CC(=O)O)NC(=O)[C@@H]2CSCN2C(=O)[C@@H](CC(=O)O)NC(=O)[C@@H](Cc2c[nH]c3ccccc23)NC1=O [Example 87, Cyclo[-D-Asp-Tpr-Asp-D-Leu-Leu-D-Trp-]] (cyclo(D[dL]L[dW][dD][Thz]))
Binding Activity on ET Receptor (R. act.) ETA [1]: 93
Binding Activity on ET Receptor (R. act.) ETB*2 [2]: 380

CC(C)C[C@@H]1NC(=O)C2(CCC2)NC(=O)[C@H](CC(=O)O)NC(=O)[C@H](Cc2c[nH]c3ccccc23)NC(=O)[C@@H](CC(=O)O)NC(=O)[C@@H](Cc2c[nH]c3ccccc23)NC1=O [Example 56, cyclo[-D-Asp-Trp-Asp-Acbu-Leu-D-Trp-]] (cyclo([Ac4c]L[dW][dD]WD))
Binding Activity on ET Receptor (R. act.) ETA [1]: 51
Binding Activity on ET Receptor (R. act.) ETB*2 [2]: 4.3

CC(C)C[C@@H]1NC(=O)[C@@H](CC(C)C)NC(=O)[C@H](CC(=O)O)NC(=O)[C@H](CCC(=O)NC2CCc3ccccc32)NC(=O)[C@@H](CC(=O)O)NC(=O)[C@@H](Cc2c[nH]c3ccccc23)NC1=O (stereo partly drawn) [Example 77, Cyclo[-D-Asp-Glu(R4)-Asp-D-Leu-Leu-D-Trp-]] (cyclo(D[dL]L[dW][dD]E(X4)))
Binding Activity on ET Receptor (R. act.) ETA [1]: 66
Binding Activity on ET Receptor (R. act.) ETB*2 [2]: 100

CC(C)C[C@@H]1NC(=O)[C@@H](CC(C)C)NC(=O)[C@H](CC(=O)O)NC(=O)C2Cc3ccccc3CN2C(=O)[C@@H](CC(=O)O)NC(=O)[C@@H](Cc2c[nH]c3ccccc23)NC1=O (stereo partly drawn) [Example 86, Cyclo[-D-Asp-D,L-Tic-Asp-D-Leu-Leu-D-Trp-]] (cyclo(D[dL]L[dW][dD][ξTic]))
Binding Activity on ET Receptor (R. act.) ETA [1]: 38
Binding Activity on ET Receptor (R. act.) ETB*2 [2]: 240

CC(=O)N1CCN(C(=O)C[C@@H]2NC(=O)[C@@H](CC(=O)O)NC(=O)[C@@H](Cc3c[nH]c4ccccc34)NC(=O)[C@H](CC(C)C)NC(=O)[C@@H](CC(C)C)NC(=O)[C@H](CC(=O)O)NC2=O)CC1 [Example 75, Cyclo[-D-Asp-Asp(R6)-Asp-D-Leu-Leu-D-Trp-]] (cyclo(D(X6)D[dL]L[dW][dD]))
Binding Activity on ET Receptor (R. act.) ETA [1]: 9
Binding Activity on ET Receptor (R. act.) ETB*2 [2]: 33

COc1cc(C)c(S(=O)(=O)NCCCC[C@@H]2NC(=O)[C@@H](CC(=O)O)NC(=O)[C@@H](Cc3c[nH]c4ccccc34)NC(=O)[C@H](CC(C)C)NC(=O)[C@@H](CC(C)C)NC(=O)[C@H](CC(=O)O)NC2=O)c(C)c1C [Example 66, Cyclo[-D-Asp-Lys(Mtr)-Asp-D-Leu-Leu-D-Trp-]] (cyclo(D[dL]L[dW][dD]K(Mtr)))
Binding Activity on ET Receptor (R. act.) ETA [1]: 51
Binding Activity on ET Receptor (R. act.) ETB*2 [2]: 120

CC(C)C[C@@H]1NC(=O)[C@@H](CC(C)C)NC(=O)[C@H](CC(=O)O)NC(=O)[C@H](CC(=O)N[C@@H](Cc2c[nH]c3ccccc23)C(=O)NCCc2ccccc2)NC(=O)[C@@H](CC(=O)O)NC(=O)[C@@H](Cc2c[nH]c3ccccc23)NC1=O [Example 94, Cyclo[-D-Asp-Asp(Trp-NHCH2CH2Ph)-Asp-D-Leu-Leu-D-Trp-]] (cyclo(D([Trp-NHPhenethyl])D[dL]L[dW][dD]))
Binding Activity on ET Receptor (R. act.) ETA [1]: 120
Binding Activity on ET Receptor (R. act.) ETB*2 [2]: 140

CCNC(=O)[C@H](Cc1c[nH]c2ccccc12)NC(=O)C[C@@H]1NC(=O)[C@@H](CC(=O)O)NC(=O)[C@@H](Cc2c[nH]c3ccccc23)NC(=O)[C@H](CC(C)C)NC(=O)[C@@H](CC(C)C)NC(=O)[C@H](CC(=O)O)NC1=O [Example 91, Cyclo[-D-Asp-Asp(Trp-NHEt)-Asp-D-Leu-Leu-D-Trp-]] (cyclo(D([Trp-NHEt])D[dL]L[dW][dD]))
Binding Activity on ET Receptor (R. act.) ETA [1]: 130
Binding Activity on ET Receptor (R. act.) ETB*2 [2]: 200

CC(C)C[C@@H]1NC(=O)[C@@H](CC(C)C)NC(=O)[C@H](CC(=O)O)NC(=O)[C@H]([C@@H](C)OCc2ccccc2)NC(=O)[C@@H](CC(=O)O)NC(=O)[C@@H](Cc2c[nH]c3ccccc23)NC1=O [Example 21, Cyclo[-D-Asp-Thr(Bzl)-Asp-D-Leu-Leu-D-Trp-]] (cyclo(D[dL]L[dW][dD]T(Bn)))
Binding Activity on ET Receptor (R. act.) ETA [1]: 4.3
Binding Activity on ET Receptor (R. act.) ETB*2 [2]: 5.0

CC(C)C[C@@H]1NC(=O)[C@@H](CC(C)C)NC(=O)[C@H](CC(=O)O)NC(=O)[C@H](CC(=O)NC2CCCc3ccccc32)NC(=O)[C@@H](CC(=O)O)NC(=O)[C@@H](Cc2c[nH]c3ccccc23)NC1=O (stereo partly drawn) [Example 74, Cyclo[-D-Asp-Asp(R5)-Asp-D-Leu-Leu-D-Trp-]] (cyclo(D(NH(Tetralin-1-yl))D[dL]L[dW][dD]))
Binding Activity on ET Receptor (R. act.) ETA [1]: 37
Binding Activity on ET Receptor (R. act.) ETB*2 [2]: 31

CC(C)C[C@@H]1NC(=O)[C@@H](CC(C)C)NC(=O)[C@H](CC(=O)O)NC(=O)[C@H](CCCNC(=O)CCc2ccccc2)NC(=O)[C@@H](CC(=O)O)NC(=O)[C@@H](Cc2c[nH]c3ccccc23)NC1=O [Example 81, cyclo[-D-Asp-Orn(COCH2CH2Ph)-Asp-D-Leu-Leu-D-Trp-]] (cyclo(D[dL]L[dW][dD][Orn](Hydrocinnamoyl)))
Binding Activity on ET Receptor (R. act.) ETA [1]: 68
Binding Activity on ET Receptor (R. act.) ETB*2 [2]: 160

CC(C)C[C@@H]1NC(=O)[C@@H](C(C)(C)C)NC(=O)[C@H](CC(=O)O)NC(=O)[C@H](Cc2c[nH]c3ccccc23)NC(=O)[C@@H](CC(=O)O)NC(=O)[C@@H](Cc2c[nH]c3ccccc23)NC1=O [Example 53, cyclo[-D-Asp-Trp-Asp-D-tLeu-Leu-D-Trp-]] (cyclo(D[dTle]L[dW][dD]W))
Binding Activity on ET Receptor (R. act.) ETA [1]: 64
Binding Activity on ET Receptor (R. act.) ETB*2 [2]: 460
